{
  "source": "the supplement of paper PMC8728848",
  "binders": {"B1": {"name": "GS7807H-bfa-490-18-490 (Bacteroides fragilis) (protein)", "chain": "GNLEEMNIDPDNATQTHPKLLLTQICMNAFKRGTDGMYATKKVIQADGESADQYYKWTRGSFGYYDNLRNVQKMGEEAERVNAPVYTALTKFFRAYYFYELTLRFGDIPYSQALKGEKEEIYTPEYDAQEDVFAGILQELREADEILANDASVIDGDIIYNGNSTQWRKLINSFRLKVLMTLSNHTTVGNINIASEFKNIATNSPLMNSLADNGQLVYLDQQGNRYPQFNAQWSGYYMDDTFIQRMRERRDPRLFIFSAQTNKGKTEGKPIDDFSSYEGGDPAAPYSDAIIKVSEGTISPINDRFRTDPIVEPTMLMGYAELQQILAEAVVRGWISGNAQTYYEKGIRASFSFYETHAKDYAGYLNENAVAQYLKEPLVDFTQASGTEEQIERIIMQKYLVTFYQGNWDSFYEQLRTGYPDFRRPAGTEIPKRWMYPQGEYDNNGTNVETAITRQFGAGNDKINQATWWQKKS"}},
  "experiment_in_all_cases": "glycan array binding signal (z-score within array); higher = stronger binding",
  "details_in_all_cases": "glycan notation: IUPAC condensed, linker removed",
  "key": {"[1]": {"target": "Neu5Ac(a2-6)GlcNAc(b1-4)GlcNAc(b1-4)GlcNAc", "summary_of_the_method": "(§1)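 Glycan array data were curated from 3228 arrays in the Consortium for Functional Glycomics database and kept only where the protein sequence was available. Glycan names were converted to IUPAC-condensed notation, and columns mapping to the same glycan were averaged. The binding signal is a within-array Z-score, averaged across arrays of the same protein sequence at different concentrations or buffers and across linkers. Negative Z-scores can be read as non-binding.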"}, "[2]": {"target": "Neu5Ac(a2-8)Neu5Ac", "summary_of_the_method": "as §1"}, "[3]": {"target": "Neu5Ac(a2-8)Neu5Ac(a2-3)Gal(b1-3)GalNAc(b1-4)[Neu5Ac(a2-3)]Gal(b1-4)Glc", "summary_of_the_method": "as §1"}, "[4]": {"target": "Neu5Ac(a2-8)Neu5Ac(a2-3)Gal(b1-3)GalNAc(b1-4)[Neu5Ac(a2-8)Neu5Ac(a2-3)]Gal(b1-4)Glc", "summary_of_the_method": "as §1"}, "[5]": {"target": "Neu5Ac(a2-8)Neu5Ac(a2-3)Gal(b1-4)Glc", "summary_of_the_method": "as §1"}, "[6]": {"target": "Neu5Ac(a2-8)Neu5Ac(a2-3)Gal(b1-4)GlcNAc", "summary_of_the_method": "as §1"}, "[7]": {"target": "Neu5Ac(a2-8)Neu5Ac(a2-3)[Gal(b1-3)GalNAc(b1-4)]Gal(b1-4)Glc", "summary_of_the_method": "as §1"}, "[8]": {"target": "Neu5Ac(a2-8)Neu5Ac(a2-3)[GalNAc(b1-4)]Gal(b1-4)Glc", "summary_of_the_method": "as §1"}, "[9]": {"target": "Neu5Ac(a2-8)Neu5Ac(a2-8)Neu5Ac", "summary_of_the_method": "as §1"}, "[10]": {"target": "Neu5Ac(a2-8)Neu5Ac(a2-8)Neu5Ac(a2-3)Gal(b1-4)Glc", "summary_of_the_method": "as §1"}, "[11]": {"target": "Neu5Ac(a2-8)Neu5Ac(a2-8)Neu5Ac(a2-3)[Gal(b1-3)GalNAc(b1-4)]Gal(b1-4)Glc", "summary_of_the_method": "as §1"}, "[12]": {"target": "Neu5Ac(a2-8)Neu5Ac(a2-8)Neu5Ac(a2-3)[GalNAc(b1-4)]Gal(b1-4)Glc", "summary_of_the_method": "as §1"}, "[13]": {"target": "Neu5Ac(a2-8)Neu5Ac(a2-8)Neu5Ac(a2-8)Neu5Ac(a2-3)[GalNAc(b1-4)]Gal(b1-4)Glc", "summary_of_the_method": "as §1"}, "[14]": {"target": "Neu5Ac(a2-8)Neu5Gc(a2-3)Gal(b1-4)GlcNAc", "summary_of_the_method": "as §1"}, "[15]": {"target": "Neu5Ac(b2-6)Gal(b1-4)GlcNAc", "summary_of_the_method": "as §1"}, "[16]": {"target": "Neu5Ac(b2-6)GalNAc", "summary_of_the_method": "as §1"}, "[17]": {"target": "Neu5Ac9Ac(a2-3)Gal(b1-3)GlcNAc", "summary_of_the_method": "as §1"}, "[18]": {"target": "Neu5Ac9Ac(a2-3)Gal(b1-4)GlcNAc", "summary_of_the_method": "as §1"}, "[19]": {"target": "Neu5Ac9Ac(a2-6)Gal(b1-4)GlcNAc", "summary_of_the_method": "as §1"}, "[20]": {"target": "Neu5Gc(a2-3)Gal(b1-3)GlcNAc", "summary_of_the_method": "as §1"}, "[21]": {"target": "Neu5Gc(a2-3)Gal(b1-3)[Fuc(a1-4)]GlcNAc", "summary_of_the_method": "as §1"}, "[22]": {"target": "Neu5Gc(a2-3)Gal(b1-4)Glc", "summary_of_the_method": "as §1"}, "[23]": {"target": "Neu5Gc(a2-3)Gal(b1-4)GlcNAc", "summary_of_the_method": "as §1"}, "[24]": {"target": "Neu5Gc(a2-3)Gal(b1-4)GlcNAc(b1-3)Gal(b1-4)GlcNAc(b1-2)Man(a1-3)[Neu5Gc(a2-3)Gal(b1-4)GlcNAc(b1-3)Gal(b1-4)GlcNAc(b1-2)Man(a1-6)]Man(b1-4)GlcNAc(b1-4)GlcNAc", "summary_of_the_method": "as §1"}, "[25]": {"target": "Neu5Gc(a2-3)Gal(b1-4)[Fuc(a1-3)]GlcNAc", "summary_of_the_method": "as §1"}, "[26]": {"target": "Neu5Gc(a2-6)Gal(b1-4)GlcNAc", "summary_of_the_method": "as §1"}, "[27]": {"target": "Neu5Gc(a2-6)GalNAc", "summary_of_the_method": "as §1"}, "[28]": {"target": "Neu5Gc(a2-8)Neu5Ac(a2-3)Gal(b1-4)GlcNAc", "summary_of_the_method": "as §1"}, "[29]": {"target": "Neu5Gc(a2-8)Neu5Gc(a2-3)Gal(b1-4)GlcNAc", "summary_of_the_method": "as §1"}, "[30]": {"target": "Neu5Gc(a2-8)Neu5Gc(a2-3)Gal(b1-4)GlcNAc(b1-3)Gal(b1-4)GlcNAc", "summary_of_the_method": "as §1"}, "[31]": {"target": "Neu5Gc(a2-8)Neu5Gc(a2-6)Gal(b1-4)GlcNAc", "summary_of_the_method": "as §1"}, "[32]": {"target": "Neu5Gc(b2-6)Gal(b1-4)GlcNAc", "summary_of_the_method": "as §1"}},
  "note": "The list shows a part of the results.",
  "data": [
    {"binder": "B1", "values": [
      {"measurement": "glycan array binding signal (z-score)", "setting": "[1]", "result": -0.38},
      {"measurement": "glycan array binding signal (z-score)", "setting": "[2]", "result": -0.459},
      {"measurement": "glycan array binding signal (z-score)", "setting": "[3]", "result": 0.329},
      {"measurement": "glycan array binding signal (z-score)", "setting": "[4]", "result": 1.91},
      {"measurement": "glycan array binding signal (z-score)", "setting": "[5]", "result": -0.502},
      {"measurement": "glycan array binding signal (z-score)", "setting": "[6]", "result": -0.843},
      {"measurement": "glycan array binding signal (z-score)", "setting": "[7]", "result": 0.547},
      {"measurement": "glycan array binding signal (z-score)", "setting": "[8]", "result": -0.085},
      {"measurement": "glycan array binding signal (z-score)", "setting": "[9]", "result": -0.171},
      {"measurement": "glycan array binding signal (z-score)", "setting": "[10]", "result": -0.628},
      {"measurement": "glycan array binding signal (z-score)", "setting": "[11]", "result": 0.502},
      {"measurement": "glycan array binding signal (z-score)", "setting": "[12]", "result": 0.152},
      {"measurement": "glycan array binding signal (z-score)", "setting": "[13]", "result": -0.425},
      {"measurement": "glycan array binding signal (z-score)", "setting": "[14]", "result": -0.612},
      {"measurement": "glycan array binding signal (z-score)", "setting": "[15]", "result": -0.202},
      {"measurement": "glycan array binding signal (z-score)", "setting": "[16]", "result": -0.874},
      {"measurement": "glycan array binding signal (z-score)", "setting": "[17]", "result": -0.08},
      {"measurement": "glycan array binding signal (z-score)", "setting": "[18]", "result": -0.142},
      {"measurement": "glycan array binding signal (z-score)", "setting": "[19]", "result": -0.14},
      {"measurement": "glycan array binding signal (z-score)", "setting": "[20]", "result": -0.413},
      {"measurement": "glycan array binding signal (z-score)", "setting": "[21]", "result": -0.469},
      {"measurement": "glycan array binding signal (z-score)", "setting": "[22]", "result": -0.812},
      {"measurement": "glycan array binding signal (z-score)", "setting": "[23]", "result": 0.319},
      {"measurement": "glycan array binding signal (z-score)", "setting": "[24]", "result": -0.11},
      {"measurement": "glycan array binding signal (z-score)", "setting": "[25]", "result": 0.477},
      {"measurement": "glycan array binding signal (z-score)", "setting": "[26]", "result": -0.62},
      {"measurement": "glycan array binding signal (z-score)", "setting": "[27]", "result": 0.648},
      {"measurement": "glycan array binding signal (z-score)", "setting": "[28]", "result": -0.287},
      {"measurement": "glycan array binding signal (z-score)", "setting": "[29]", "result": -0.28},
      {"measurement": "glycan array binding signal (z-score)", "setting": "[30]", "result": -0.111},
      {"measurement": "glycan array binding signal (z-score)", "setting": "[31]", "result": -0.458},
      {"measurement": "glycan array binding signal (z-score)", "setting": "[32]", "result": -0.174}
    ]}
  ]
}
